This is an account of results in the supplement of paper PMC11417369.

Some of the results follow.

For the test, the system named is PfSIP2 AP2 domain 1 (GST-tagged). The test can be described thus: gcPBM binding intensity (ln(normalized median fluorescence intensity)); higher = stronger DNA binding. Put shortly:
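Binding of GST-tagged P. falciparum DNA-binding domains, expressed in E. coli and used at about 25 μg on average, was carried out for 1 h in 1× PBS containing 1% milk, 0.2 mg/ml BSA, 0.5% salmon testes DNA and 0.03% Triton X-100. The target was an Agilent 4 × 180k array of primer-extended double-stranded 36-bp intergenic genomic probes plus negative controls, read with Alexa488 anti-GST antibody at 488 nm. Binding intensity is the highest Masliner-normalised natural-log median intensity across replicate spots of either probe orientation.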
Consider “TTCATTAAAGTTATTACACACAGTTCTTCAACCAAA [CACACA_site7613]”, for which the “gcPBM binding intensity (ln)” value was 6.88. As to “TATATATTAAGATGCACACACAAGAAGTAATTATAA [CACACA_site5726]”, the “gcPBM binding intensity (ln)” value came out at 8.21. Take “ATTTTTTCTTATAAAAAAGAAAAAGAAAAAGAAAAA [CACACA_negctrl_site1216]”: the “gcPBM binding intensity (ln)” value amounted to 7.09. To “TAAATATATAAATACACACACACCAAAGCAATAGAT [CACACA_site5605]” belongs 7.04; to “TCCATATGCATGTATTGTACTGTAATATATTAAAAA [XGTACX_site472]”, 7.12. As for “AAAAAAAAAAAAGAAACACACACATATATATATATA [CACACA_site8525]”, the “gcPBM binding intensity (ln)” value worked out at 9.36. To “AGCAGTCGACAGGACAGTACACAGTAGCCAGGAAAT [XGTACX_site4929]” belongs 6.62; to “TGAATATAACAAATATGTACTTAAAATTGTTATATT [XGTACX_site5679]”, 6.95.

As to “CACACTTGCTCCTGTTGTACATAACCATAAGCAACA [XGTACX_site2102]”, the “gcPBM binding intensity (ln)” value is 7.36.

Consider “ATTATTAAAAATATGGGTACATATTATTGTTATATA [XGTACX_site1958]”, for which the “gcPBM binding intensity (ln)” value was determined as 6.89. With “TTATATTTTACAAATGCACACATAATTTTTTTTTTT [CACACA_site8890]”, the “gcPBM binding intensity (ln)” value came to 7.16.

For the sequence “AAAAAAAAAAAAAAATGTACATGACATGACATGACA [XGTACX_site4020]”, the “gcPBM binding intensity (ln)” value stood at 7.31. To “TAAAGAAATAAATACATACACACATATATATATATA [CACACA_site3363]” belongs 9.69; to “AAACTTTACATTACTTGTACATATATTCTATATAAT [XGTACX_site8640]”, 7.26. On to “TTTGATAATAAGATATAATACTTAAATATATATATA [GTGCAC_negctrl_site339]”, for which the “gcPBM binding intensity (ln)” value came to 8.85. The result for “AAATATATATTCAAAAGTACACAATTTGTTAATAAT [XGTACX_site8917]” reads 7; that for “TATTTTACGCGGTTTATAATGACATGTTCTATATTT [CACACA_negctrl_site1184]”, 6.94. The result for “AGCCCTTTTTTTTTTTAGAATATTGCATAATTATAT [XGTACX_negctrl_site546]” reads 7.24; that for “TATATAAATATATCCACACACATACCTATATTAATA [CACACA_site6184]”, 7.17; that for “GTATTGTATGGATGGGGTACTATATATATATATTTT [XGTACX_site1694]”, 7.58. The result for “TTATAATTAAATTTCACACAGTTCATAACATAATTA [CACACA_site5501]” reads 6.97.

In the case of “TAAGGGAGAGATTTGTATCATAAGCAACTTTCAAAA [CACACA_negctrl_site1436]”, the “gcPBM binding intensity (ln)” value is 6.82. To “TTTATATGTTTTAAGTGTACACATATAATGTATTTT [XGTACX_site3069]” belongs 7.09. The result for ACTTTCAACATGAAGTTGCACTTTTTTTTTTTTCTT reads 8.11. Take “TAATTAAATAAAAAAAAATATATATATATATATATA [XGTACX_negctrl_site616]”: the “gcPBM binding intensity (ln)” value worked out at 9.93. To “TTTTTTAAAAATAACTGTACAGAGGCTGTTAGGATA [XGTACX_site2521]” belongs 7.32.

“AGACAATATTAATAAGGTACACATATATATTAAAAA [XGTACX_site6709]”: the “gcPBM binding intensity (ln)” value came out at 7.08. To “ATATGTCCATATAGTAAATGTTACATTTTAAAGCGC [XGTACX_negctrl_site168]” belongs 6.84; to “CATATTTTGTGAAAAAGTACATATATATATATATAT [XGTACX_site6295]”, 9.34; to “AAAATATTTATTTTTTGTACACATAAAAACGCACTT [XGTACX_site4132]”, 8.15. For ATTCTTAAAAAATAAGTGCAAAATAATTAAATAAAT, the “gcPBM binding intensity (ln)” value was found to be 8.44. “AGAATGGTTTATAAAGGTACGTAATTTTTAATTTTA [XGTACX_site383]”: the “gcPBM binding intensity (ln)” value amounted to 6.74.

On to “AAACGTATTCTATAAAGTACATTATTATAGTAGACC [XGTACX_site8068]”, for which the “gcPBM binding intensity (ln)” value came out at 7.2. The result for “TATTGAATAAAATGCACACGCATGCGTTATTTATTA [CACACA_site3479]” reads 6.9.

Take “TAAAAAAATTATATTTGTACATATTAATATAGCCTT [XGTACX_site4833]”: the “gcPBM binding intensity (ln)” value came out at 6.81. To “TAGTATTAAATATATACACACATATATACCTATAGA [CACACA_site5219]” belongs 6.82.

“TGAAAAGATAAAAAAAGTACACACACACATATATAT [XGTACX_site6504]”: the “gcPBM binding intensity (ln)” value amounted to 7.56.

“AAAAATTCAATAGGACGTACTAAAACATTCATTAAT [XGTACX_site1712]”: the “gcPBM binding intensity (ln)” value turned out to be 6.87. The result for “TTTAGTGTTATAAAAAGTACATAATAATTCCTTTTC [XGTACX_site3208]” reads 7.05; that for “TTATAAATAATGAGAAACATTAAATTTAATCATAAA [CACACA_negctrl_site523]”, 6.74. To “TACTATATATATATATATATATATATATATATTTAT [GTGCAC_negctrl_site593]” belongs 7.9; to “AATATGTACAGACATACACACATATTTATATTTATA [CACACA_site6694]”, 7.04. As to “TTATATAAAGAATGTACACACAGAAATGCACAGACA [CACACA_site5288]”, the “gcPBM binding intensity (ln)” value came to 8.26.

For the sequence “GCTTATATTAATAAGGTGCTTTTTATTTCGTGTGTA [GTGCAC_site9649]”, the “gcPBM binding intensity (ln)” value was 7.78.

With “TCATAGTATAAACACACACACACACCCATATATATA [CACACA_site8512]”, the “gcPBM binding intensity (ln)” value was determined as 7.41.
